Test results published in ChEMBL document CHEMBL1156484, “Hot spots in prion protein for pathogenic conversion” (Proc Natl Acad Sci U S A, 2007).
Active and inactive are the calls of the source. The calls are words filed in the database; no cut-off is given here.

Legend:
GT1-7 [1] = experiment: Inhibition of scrapie form PrP production in mouse GT1-7 cells infected with human transmissible spongiform encephalopathies agent Chandler/RML
GT1-7 [2] = experiment: Inhibition of scrapie form PrP production in mouse GT1-7 cells infected with human transmissible spongiform encephalopathies agent 22L
GT1-7 [3] = experiment: Inhibition of scrapie form PrP production in mouse GT1-7 cells infected with bovine spongiform encephalopathy agent by Western blot
GT1-7 [4] = experiment: Inhibition of scrapie form PrP production in mouse GT1-7 cells infected with human transmissible spongiform encephalopathies agent Fukuoka1 at 10 uM by Western blot

Question: What does the source list for `O=C(CN1CCCC1)Nc1ccc(Cc2ccc(NC(=O)CN3CCCC3)cc2)cc1`?
Answer: Activity (GT1-7 [1]): Active; Activity (GT1-7 [2]): Active; Activity (GT1-7 [3]): inactive; Activity (GT1-7 [4]): Active
